Laboratory results from the supplement of paper PMC12217912.
The other results are listed elsewhere or left out. The full chains were built here from the parent and the listed change. Inactive controls read about 0.05.

B1: TEV protease; numbered along this chain (parent)
chain: MGESLFKGPRDYNPISSSICHLTNESDGHTTSLYGIGFGPFIITNKHLFRRNNGTLVVQSLHGVFKVKDTTTLQQHLVDGRDMIIIRMPKDFPPFPQKLKFREPQREERICLVTTNFQTKSMSSMVSDTSCTFPSGDGIFWKHWIQTKDGQCGSPLVSTRDGFIVGIHSASNFTNTNNYFTSVPKNFMELLTNQEAQQWVSGWRLNADSVLWGGHKVFMVKPEEPFQPVKEATQL

Variants of: B1
Assay: raw area under fraction-flipped curve 0-4 h after induction (AUC4h, not background-subtracted), DNA-recorder readout of cleavage of the substrate (dimensionless); higher = more cleavage of the substrate by the protease variant
Conditions: temperature: 34 °C; time window: 0-4 h after rhamnose induction
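Also: Bxb1 expression induced with 0.2% (w/v) L-rhamnose at OD600 near 0.5, cultures sampled hourly, flipped fraction per protease–substrate barcode pair counted by paired-end Illumina sequencing.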

Variant | area with substrate ANLYFQS | area with substrate CNLYFQS | area with substrate DNLYFQS | area with substrate GNLYFQS | area with substrate HNLYFQS | area with substrate INLYFQS | area with substrate KNLYFQS | area with substrate LNLYFQS | area with substrate MNLYFQS | area with substrate NNLYFQS | area with substrate PNLYFQS | area with substrate SNLYFQS | area with substrate TNLYFQS | area with substrate WNLYFQS | area with substrate FNLYFQS | area with substrate VNLYFQS | area with substrate YNLYFQS | area with substrate RNLYFQS | area with substrate QNLYFQS
F173A | 0.0681 | 0.063 | 0.0592 | 0.0574 | 0.0466 | 0.0653 | 0.0889 | 0.0575 | 0.06 | 0.0601 | 0.0595 | 0.0537 | 0.0537 | 0.0535 |  |  |  |  | 
K142T | 0.0911 | 0.0454 | 0.0823 | 0.0428 | 0.0705 | 0.0692 | 0.0571 | 0.068 | 0.0678 |  |  | 0.0732 |  | 0.0593 | 0.0652 | 0.0673 | 0.0638 |  | 
H29D | 0.0756 | 0.0834 | 0.0791 |  |  | 0.0598 |  | 0.0578 | 0.0496 | 0.0476 | 0.0643 |  | 0.0757 | 0.0561 | 0.0643 |  | 0.0687 |  | 
H47K | 0.0425 | 0.0447 | 0.0559 | 0.0691 | 0.0564 | 0.0564 | 0.0597 | 0.0572 | 0.0727 | 0.0751 | 0.0588 | 0.0531 | 0.0497 | 0.061 | 0.0607 |  | 0.0481 |  | 
S4G | 0.0601 | 0.0712 | 0.0727 | 0.0603 | 0.0663 | 0.0574 | 0.0726 | 0.0626 | 0.0571 | 0.052 | 0.0672 | 0.0596 | 0.0703 | 0.0572 |  |  | 0.0747 | 0.0256 | 
S127P | 0.0494 | 0.0661 | 0.0754 | 0.0713 |  | 0.0553 |  | 0.0434 | 0.07 |  | 0.0736 |  | 0.0594 | 0.063 |  |  | 0.0573 |  | 
N13R | 0.0687 | 0.0736 | 0.0806 |  | 0.0659 | 0.0759 |  | 0.0685 | 0.0661 | 0.0531 | 0.075 | 0.0605 | 0.0569 | 0.0594 |  |  | 0.0522 | 0.0553 | 
P225F | 0.0652 | 0.0674 | 0.0613 |  |  |  | 0.0676 | 0.0703 |  | 0.0551 | 0.0655 |  | 0.0337 | 0.0593 |  |  | 0.0572 |  | 0.0088
G54L | 0.0659 | 0.0606 | 0.0524 | 0.0492 | 0.0459 | 0.0471 |  | 0.0633 | 0.0507 | 0.0628 | 0.0554 | 0.0475 | 0.0588 | 0.0483 |  | 0.0497 | 0.0474 |  | 0.0412
T30F | 0.0757 | 0.0775 | 0.0752 | 0.0675 | 0.0556 | 0.0635 | 0.0646 | 0.0727 | 0.0628 | 0.0594 | 0.0585 | 0.0665 | 0.0569 | 0.0481 | 0.0681 | 0.0653 | 0.0587 | 0.0361 | 0.0512
D91A | 0.0603 | 0.0693 | 0.0703 | 0.0552 | 0.0623 | 0.047 |  |  | 0.0637 | 0.0615 |  | 0.0732 | 0.0655 | 0.0556 |  |  | 0.0644 |  | 
K185T | 0.0552 | 0.068 | 0.0607 | 0.0406 | 0.069 | 0.0811 | 0.0674 |  | 0.069 | 0.0814 | 0.0649 | 0.0692 | 0.0657 | 0.0531 | 0.0729 | 0.0614 | 0.059 |  | 
F49K | 0.0553 | 0.0536 | 0.0627 | 0.0561 | 0.051 | 0.0531 | 0.0419 | 0.0558 |  | 0.05 | 0.0415 |  | 0.0556 | 0.0455 |  | 0.0566 | 0.0506 | 0.0502 | 0.0528
S17D | 0.068 | 0.0543 | 0.0787 | 0.0676 | 0.0696 | 0.0613 | 0.0639 | 0.0591 | 0.0593 |  | 0.0834 | 0.0728 | 0.0776 | 0.0566 |  | 0.0651 | 0.0631 | 0.0677 | 
G162M | 0.0697 | 0.0612 | 0.0761 | 0.0659 | 0.043 | 0.0582 | 0.0499 | 0.0616 |  |  | 0.087 |  |  | 0.04 |  | 0.0706 | 0.0529 |  | 
L73P | 0.0545 | 0.0501 | 0.0602 |  | 0.0377 | 0.0508 |  | 0.0522 | 0.0441 | 0.0413 | 0.0744 | 0.0572 | 0.0457 |  |  |  | 0.0499 |  | 
E103L | 0.0995 | 0.0861 | 0.0883 | 0.0805 | 0.0805 |  | 0.0772 |  |  |  | 0.0515 |  | 0.0532 | 0.0625 | 0.0401 |  |  |  | 
F38P | 0.0304 | 0.0414 | 0.0375 | 0.0509 | 0.0413 | 0.0358 |  | 0.0401 | 0.0321 | 0.0503 | 0.0386 | 0.015 | 0.042 | 0.0322 | 0.0355 |  | 0.0354 |  | 
V220P | 0.0494 | 0.0659 | 0.0754 | 0.0629 | 0.0585 | 0.0575 | 0.0687 | 0.0564 | 0.0623 | 0.0661 | 0.0711 | 0.0634 | 0.0583 | 0.0574 | 0.0472 |  | 0.0599 |  | 
S18R | 0.0828 | 0.0794 | 0.0802 | 0.0566 | 0.0533 |  |  | 0.0658 | 0.0658 | 0.0707 | 0.0779 | 0.0556 | 0.0607 | 0.0619 | 0.0622 | 0.0643 |  | 0.0727 | 0.086
E224F |  |  |  | 0.0882 |  |  |  |  |  | 0.0821 | 0.0707 | 0.0561 |  | 0.0629 | 0.0607 | 0.0573 | 0.0577 |  | 
V200N |  |  |  | 0.0631 |  | 0.0584 |  |  |  |  | 0.0236 |  | 0.0406 | 0.0723 | 0.0719 |  |  |  | 
